Measured values reported in patent publication US6903111B2 (priority 2001, dated 2005).

Experiments:
[1] = tested on: Normal Rats; assay: animal or person; settings: Rattus norvegicus, po, 1 h, 18 hr fasted rats, 1 hr after oral administration; for inhibition in vivo at 10 mg/kg: read-out: Reduction percent (%) of rised plasma glucose level relative to vehicle-treated group, Dose 10 mg/kg, orally, simultaneously with glucose solution (2 g/kg)
[2] = tested on: Normal Rats; settings: Dose 10 mg/kg, orally, simultaneously with glucose solution (2 g/kg); 18 hr fasted rats; 1 hr after oral administration

| Structure (SMILES) | inhibition in vivo at 10 mg/kg [1] [%] | further results |
| --- | --- | --- |
| COC(=O)c1ccccc1OC(=O)[C@H](CC(=O)N1CC2CCC1CC2)Cc1ccccc1 [Compound 46, o-methoxycarbonylphenyl (2S)-2-benzyl-4-(isoquinuclidine-2-yl)-4-oxo-butanoate] | 88 |  |
| COC(=O)c1ccccc1SC(=O)[C@H](CC(=O)N1CC2CCC1CC2)Cc1ccccc1 [Compound 50, S-(o-methoxycarbonyl)phenyl (2S)-2-benzyl-4-(isoquinuclidine-2-yl)-4-oxothiobutanoate] | 66 |  |
| O=C(Oc1ccccc1)[C@H](CC(=O)N1CC2CCC1CC2)Cc1ccccc1 [Compound 15, (2S)-2-benzyl-4-(isoquinuclidin-2-yl)-4-oxo-butanoic acid phenylester] | 35 |  |
| O=C([O-])[C@H](CC(=O)N1CC2CCC1CC2)Cc1ccccc1.[Na+] [Compound 11] |  | Reduction percent (%) of rised plasma glucose level relative to vehicle-treated group [2]: 43% |
| O=C(O)[C@H](CC(=O)N1CC2CCC1CC2)Cc1ccccc1 [Compound 1, (2S)-2-benzyl-4-(isoquinuclidin-2-yl)-4-oxo-butanoic acid] | 35 |  |
| CCOC(=O)c1ccccc1OC(=O)[C@H](CC(=O)N1CC2CCC1CC2)Cc1ccccc1 [Compound 48, o-ethoxycarbonylphenyl (2S)-2-benzyl-4-(isoquinuclidine-2-yl)-4-oxo-butanoate] | 55 |  |
| CN(c1c(O)c(=O)c1=O)[C@H](CC(=O)N1CC2CCC1CC2)Cc1ccccc1 [Compound 52, N-(3-hydroxy-3-cyclobutene-1,2-dione-4-yl)-N-methyl-(1S)-[2-(isoquinuclidin-2-yl)-2-oxo-ethyl]-phenyl ethylamine] | 31 |  |
| O=C(Oc1ccc(O)cc1)[C@H](CC(=O)N1CC2CCC1CC2)Cc1ccccc1 [Compound 18, p-hydroxy phenyl (2S)-2-benzyl-4-(isoquinuclidine-2-yl)-4-oxo-butyrate] | 82 |  |
| COc1ccc(OC(=O)[C@H](CC(=O)N2CC3CCC2CC3)Cc2ccccc2)cc1 [Compound 17, p-methoxyphenyl (2S)-2-benzyl-4-(isoquinuclidine-2-yl)-4-oxo-butylate] | 48 |  |
| CSCOC(C(=O)O)[C@H](CC(=O)N1CC2CCC1CC2)Cc1ccccc1 (stereo partly drawn) [Compound 45] | 59 |  |
| O=C(OC1CCCCC1)[C@H](CC(=O)N1CC2CCC1CC2)Cc1ccccc1 [Compound 14] |  | inhibition in vivo at 30 mg/kg ([1]; read-out: Reduction percent (%) of rised plasma glucose level relative to vehicle-treated group, Dose 30 mg/kg, orally, simultaneously with glucose solution (2 g/kg)): 32% |
| O=C(O)[C@H](CCN1CC2CCC1CC2)Cc1ccccc1 [Compound 47] | 26 |  |
